# Data reported in the supplement of paper PMC12645437, “Orthogonal IMiD-Degron Pairs Induce Selective Protein Degradation in Cells” (ACS Chemical Biology, 2025).
# The list shows a part of the results.
# Biological target: no compound (DMSO)
# Assay: log2 fold change of degron read counts, EGFP-low vs EGFP+ sorted cells; higher = lower degron-EGFP level without compound (poor expression or instability)
# Conditions: compound: DMSO control; 18 h
# 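Note: jurkat cells carrying a lentiviral library of mutant zinc finger degrons fused to EGFP plus mCherry, mCherry+ cells FACS sorted, degron abundance counted by next-generation sequencing.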
row,Sequence,log2 fold change of degron read counts
1,FWCNQCGAIFTQKGNLLRHIKL,1.24
2,FMCDICGAAFTQKGNLLRHIKL,-0.975
3,LYCPICGFACTQKGNLLRHIKL,0.324
4,FRCDQCGALFTQKGNLLRHIKL,-2.04
5,FDCPICGHGFTQKGNLLRHIKL,-0.665
6,FKCDVCGAMFTQKGNLLRHIKL,-1.75
7,LDCEICGFCCTQKGNLLRHIKL,-0.172
8,FYCDQCGAYFTQKGNLLRHIKL,0.171
9,LSCPICGFECTQKGNLLRHIKL,-0.0873
10,LICPICGFTCTQKGNLLRHIKL,0.597
11,FNCPICGHVFTQKGNLLRHIKL,-0.373
12,FECPICGRWFTQKGNLLRHIKL,0.186
13,FTCPICGHKFTQKGNLLRHIKL,-0.158
14,FNCEQCGASFTQKGNLLRHIKL,-1.92
